Tested on: Pseudomonas aeruginosa N-10 L-form
Experiment: microbe, parasite or virus in culture
Details: N10LFORM, read-out: Inhibition Circle
Text: The value in paretheses in the table denotes a partial inhibition.

Question: With `CC=C(C)C(O)C(C)C=C(C)C=CCC(C)=CCc1nc(OC)c(OC)c(OC2OC(C)C(O)C(O)C2O)c1C` (stereo not shown) as the compound, how does the zone of inhibition at 20 µg/disc read?
Answer: Its zone of inhibition at 20 µg/disc is 14 mm.
